Structures are written as SMILES. In all, about 45,000 compounds went through this assay and about 200 (0.44%) were called active. Inconclusive results (about 7%) are left out. Calls come from the whole dose curve; as a rule, active = well fitted activation curve with a large enough effect; inconclusive = small, poorly fitted or top-dose-only effect; inactive = no such curve, though single readings can be large or run the other way. The list shows a part of the results.

This assay in a line: qHTS of TDP-43 Inhibitors: NCGC Sytravon Library Screen. Note: 0% is about no effect; nearly all actives have a fitted effect of over 55% in size. As to conditions: yeast TDP-43 toxicity rescue, BacTiter-Glo growth, 24 h; series mostly up to 46.1 µM; growth rescue (activation): at the top concentration. A digest of the protocol: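 TDP-43-expressing yeast, pregrown in raffinose, seeded at OD600 0.02 in galactose medium with compound for 24 hr at 30 deg C. Growth read by BacTiter-Glo luminescence, so rescue of toxicity appears as activation.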
As to `CCN(CC)c1ccc(N=Nc2ncn[nH]2)cc1`, the “growth rescue (activation)” value is inactive: -4.42%.

In the case of `COc1cccc(/C=N/NC(=O)c2cccc(N3CCCC3=O)c2)c1`, the “growth rescue (activation)” value was inactive: 10.3%.

As for `CCCn1c(N)c(C(=O)COC(=O)/C=C/c2ccc(OC(F)F)c(OC)c2)c(=O)[nH]c1=O`, the “growth rescue (activation)” value was inactive: 3.38%. The value for `Cc1cc(C)c(C)c(Oc2ncnc(N)c2[N+](=O)[O-])c1` was inactive: 20.7%; that for `CN(C)C(=O)CCC(=O)N1CCCC(C(=O)c2ccc3c4c(cccc24)CC3)C1` (stereo unspecified) was inactive: 5.3%; that for `Cc1ccc(S(=O)(=O)N2CCN(C(=O)c3ccccn3)CC2)cc1` was inactive: -9.19%. The result for `CC(C)(C)NC(=O)CN(C(=O)CCC(=O)Nc1nccs1)c1ccc(F)c(Cl)c1` reads inactive: -3.4%.

Consider `CCc1nccn1-c1cc(C(C)(C)C)nc2c(-c3ccc(Cl)cc3)cnn12`, for which the “growth rescue (activation)” value is inactive: 2.45%. The result for `Nc1nc(N2CCN(Cc3ccccc3)CC2)n[nH]1` reads inactive: -0.853%. Take `Cc1ccc(NS(=O)(=O)c2cccc(C(=O)NCCc3c[nH]c4ccccc34)c2)c(C)c1`: the “growth rescue (activation)” value was inactive: -5.95%. As for `O=C1CCc2ccc(NS(=O)(=O)c3ccc(F)cc3)cc2N1`, the “growth rescue (activation)” value was inactive: 8.26%. The value for `O=C(Nc1nnc(Cc2ccc([N+](=O)[O-])cc2)s1)c1ccc2c(c1)OCO2` was inactive: 9.3%; that for `CSc1ccccc1NC(=O)COc1ccc(Cl)cc1Cl` was inactive: -2.8%; that for `COc1cc(NC(=O)c2ncn[nH]2)cc(OC)c1OC` was inactive: 33.3%. The value for `O=C(Nc1ccc(Br)cn1)c1ccc(Br)s1` was inactive: 11.4%; that for `COC(=O)c1cccc(N(CC(=O)NC2CCCC2)C(=O)CCC(=O)Nc2cc(C)on2)c1` was inactive: -2.37%.

As for `CCc1ccc(C(=O)Nc2cc(C)ccc2F)s1`, the “growth rescue (activation)” value is inactive: 8.76%. The result for `Cc1ccc(OCCN2CCC2(C)C(=O)NCc2ccc(C(F)(F)F)cc2)cc1` (stereo unspecified) reads inactive: -7.92%; that for `COc1cccc(-c2csc(N3CCN(CC(=O)NNC(=O)c4ccco4)CC3)n2)c1`, inactive: 4.73%. The result for `Cc1cccc(C)c1N/C=C/c1onc(C)c1[N+](=O)[O-]` reads inactive: -21.4%. The result for `Cc1cc(C)cc(OC(=O)CCN2C(=O)C3C4C=CC(C5CC45)C3C2=O)c1` (stereo unspecified) reads inactive: 6.31%. In the case of `O=C(c1ccccc1NS(=O)(=O)c1cccc([N+](=O)[O-])c1)N1CCCC1`, the “growth rescue (activation)” value is inactive: 1.12%. Regarding `CCN(CC)S(=O)(=O)c1ccc(OC)c(NC(=O)c2cc3c(=O)n4ccccc4nc3s2)c1`, the “growth rescue (activation)” value was inactive: -7.15%. The value for `Cc1cc(C)c2cc(CN(CCO)Cc3nnnn3Cc3ccccc3)c(=O)[nH]c2c1` was inactive: 3.43%. The value for `O=C(Nc1ccc2c(c1)OCCO2)c1coc2ccccc2c1=O` was inactive: -14.2%. As for `CNS(=O)(=O)c1cccc(C(=O)OCC(=O)N(Cc2ccccc2)C(C)(C)C)c1`, the “growth rescue (activation)” value is inactive: 6.47%. On to `Cc1cccc(N(C(=O)Cc2cccs2)C(C(=O)NCc2ccco2)c2ccncc2)c1` (stereo unspecified), for which the “growth rescue (activation)” value is inactive: -11.3%. The result for `COc1ccc(-n2c(=O)c3c(C)c(C)sc3n(Cc3ccc(F)cc3)c2=O)c(OC)c1` reads inactive: -13%. In the case of `COc1cc(/C(C)=N/NC(=S)NC(C)C)cc(OC)c1OC`, the “growth rescue (activation)” value was inactive: -6.6%. The result for `CCOC(=O)c1ccccc1NC(=O)COC(=O)C(Cc1c[nH]c2ccccc12)NC(C)=O` (stereo unspecified) reads inactive: 12.6%; that for `COc1ccc(S(N)(=O)=O)cc1C(=O)OCC(=O)Nc1sccc1C#N`, inactive: 16.1%. In the case of `CCN(CC)S(=O)(=O)c1ccc(OC)c(NC(=O)Cn2cnc3c2c(=O)n(C)c(=O)n3C)c1`, the “growth rescue (activation)” value was inactive: -17%. The value for `Cc1nn(-c2ccccc2)c(C)c1/C=N/NC(=O)c1cc(-c2cccc3ccccc23)n[nH]1` was inactive: 12.4%.

For the compound `COc1ccccc1-c1nnc(SCC(=O)Nc2ccc(N3CCOCC3)cc2)n1N`, the “growth rescue (activation)” value was inactive: 13.7%.

As for `CCn1nc(C)c(CNC(=O)C2CCC(=O)N(Cc3cccc(F)c3)C2)c1C` (stereo unspecified), the “growth rescue (activation)” value is inactive: 2.15%. Regarding `Cc1nc2ccc(NC(=S)N3CCOCC3)cc2nc1C`, the “growth rescue (activation)” value is inactive: -16.3%. The result for `COc1ccc(C(=O)NNC(=O)CSc2nnc(C)n2C)cc1` reads inactive: -5.35%; that for `COc1ccc(N(CC(=O)NN=C2CCN(C)CC2)S(=O)(=O)c2ccc(NC(C)=O)cc2)cc1`, inactive: 25.1%; that for `O=C(c1ccco1)N1CCN(S(=O)(=O)/C=C/c2ccccc2)CC1`, inactive: 13.2%. The value for `CC(=O)Nc1ccc(NC(=O)C2CCCN2C(=O)NC2CCCCC2)cc1` (stereo unspecified) was inactive: 13.3%. The value for `CCCn1c(SCC(=O)NC)nc2sc3c(c2c1=O)CCC3` was inactive: 5.33%; that for `O=c1[nH]c(C2CCN(S(=O)(=O)c3ccc4c(c3)OCCO4)CC2)nc2c1nnn2Cc1cccc(F)c1` was inactive: -6%.

Take `COc1ccc(NC(=O)c2cc(C)no2)cc1Cl`: the “growth rescue (activation)” value was inactive: -7.48%.

As for `CCc1ccccc1NC(=O)c1ccc(-c2csc(C)n2)cc1`, the “growth rescue (activation)” value was inactive: 13.4%.

Take `Cc1cccc(-n2c(=O)c3c4c(sc3n3c(=S)[nH]nc23)CCC4)c1`: the “growth rescue (activation)” value is inactive: 7.41%.

Turning to `Cc1ccc(-n2c(SCC(N)=O)nc(O)cc2=O)cc1`, the “growth rescue (activation)” value is inactive: 8.69%. The value for `N#Cc1ccc(N2C(=O)[C@@H]3C(C(=O)C(c4ccccc4)c4ccccc4)=NN[C@@H]3C2=O)cc1` was inactive: -34.6%; that for `COc1ccc(C(C)C)cc1S(=O)(=O)Nc1ncn[nH]1` was inactive: -1.53%; that for `CCC(C)(C)c1ccc(OC(=O)c2cccnc2Cl)cc1` was inactive: 13.5%. The value for `O=C(N/N=C/c1ccsc1)c1ccccn1` was inactive: -3.65%. For `Cc1cc(C)cc(OCC(=O)NNC(=O)c2cc3ccccc3o2)c1`, the “growth rescue (activation)” value was inactive: 17.7%.

Source of the values: PubChem BioAssay AID1347073 (National Center for Advancing Translational Sciences (NCATS), 2019).
